# In patent publication US20220227829A1 (SHANGHAI GP BIOTECH, published 2022):
# T1: human IL-2Rα receptor, extracellular domain with 6×His Tag (human, UniProt P01589 22-240)
# T1 construct: it is read as the whole construct, not the tag alone; also called human IL-2Rα subunit; recombinant monomer IL-2Rα subunit
# T1 sequence: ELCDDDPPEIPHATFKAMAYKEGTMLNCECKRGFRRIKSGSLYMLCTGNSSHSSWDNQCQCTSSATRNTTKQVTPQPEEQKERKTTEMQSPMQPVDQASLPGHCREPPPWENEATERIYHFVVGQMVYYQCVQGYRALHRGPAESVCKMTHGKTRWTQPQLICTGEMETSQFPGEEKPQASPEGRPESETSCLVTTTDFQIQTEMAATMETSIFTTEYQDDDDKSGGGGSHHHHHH
# T2: CD25 on the surface of NK92 cells (human NK cell line) (human, UniProt P01589 22-272)
# T2 sequence (looked up): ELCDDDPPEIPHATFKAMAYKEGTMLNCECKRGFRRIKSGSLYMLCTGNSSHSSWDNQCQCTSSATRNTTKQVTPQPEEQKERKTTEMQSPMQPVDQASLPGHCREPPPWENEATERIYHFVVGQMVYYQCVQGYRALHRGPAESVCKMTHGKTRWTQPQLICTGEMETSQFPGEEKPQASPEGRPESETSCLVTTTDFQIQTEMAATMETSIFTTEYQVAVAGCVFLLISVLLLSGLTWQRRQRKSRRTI
# B1: IL-2-HSA (T3A) wild type (ligand)
# chain: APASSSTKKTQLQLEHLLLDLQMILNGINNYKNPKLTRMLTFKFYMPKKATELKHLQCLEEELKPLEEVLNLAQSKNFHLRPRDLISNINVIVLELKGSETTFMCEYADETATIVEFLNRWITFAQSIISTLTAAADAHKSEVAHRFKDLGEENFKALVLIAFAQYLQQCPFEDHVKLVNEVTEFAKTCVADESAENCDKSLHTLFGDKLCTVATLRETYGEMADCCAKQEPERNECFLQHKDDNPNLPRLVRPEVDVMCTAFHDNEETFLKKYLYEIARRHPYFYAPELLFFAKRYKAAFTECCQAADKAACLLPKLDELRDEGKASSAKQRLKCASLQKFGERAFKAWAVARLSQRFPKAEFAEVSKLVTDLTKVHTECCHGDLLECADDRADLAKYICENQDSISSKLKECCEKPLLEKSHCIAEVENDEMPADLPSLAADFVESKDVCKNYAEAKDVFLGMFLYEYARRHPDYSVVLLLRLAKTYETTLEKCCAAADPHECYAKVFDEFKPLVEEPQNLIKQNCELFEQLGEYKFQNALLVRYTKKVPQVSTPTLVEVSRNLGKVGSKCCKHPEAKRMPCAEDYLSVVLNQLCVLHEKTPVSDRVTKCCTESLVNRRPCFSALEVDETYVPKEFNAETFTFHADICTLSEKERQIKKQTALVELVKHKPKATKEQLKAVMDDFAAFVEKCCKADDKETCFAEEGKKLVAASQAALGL
# notes: also called wild-type IL-2-HSA; IL-2-HSA wild type
# B2: IL-2gm4 (T3A, K49N, A73T), HSA tag (ligand)
# chain: APASSSTKKTQLQLEHLLLDLQMILNGINNYKNPKLTRMLTFKFYMPKNATELKHLQCLEEELKPLEEVLNLTQSKNFHLRPRDLISNINVIVLELKGSETTFMCEYADETATIVEFLNRWITFAQSIISTLTAAA[about 600 residues skipped]
# notes: also called IL-2gm4-HSA
# B3: IL-2gm1a (T3A, M39D), HSA tag (ligand)
# chain: APASSSTKKTQLQLEHLLLDLQMILNGINNYKNPKLTRDLTFKFYMPKKATELKHLQCLEEELKPLEEVLNLAQSKNFHLRPRDLISNINVIVLELKGSETTFMCEYADETATIVEFLNRWITFAQSIISTLTAAA[about 600 residues skipped]
# notes: HSA fusion; also called IL-2gm1a-HSA
# B4: IL-2gm1b (T3A, M39E), HSA tag (ligand)
# chain: APASSSTKKTQLQLEHLLLDLQMILNGINNYKNPKLTRELTFKFYMPKKATELKHLQCLEEELKPLEEVLNLAQSKNFHLRPRDLISNINVIVLELKGSETTFMCEYADETATIVEFLNRWITFAQSIISTLTAAA[about 600 residues skipped]
# notes: HSA fusion; also called IL-2gm1b-HSA
# B5: IL-2gm1 (T3A, M39N), HSA tag (ligand)
# chain: APASSSTKKTQLQLEHLLLDLQMILNGINNYKNPKLTRNLTFKFYMPKKATELKHLQCLEEELKPLEEVLNLAQSKNFHLRPRDLISNINVIVLELKGSETTFMCEYADETATIVEFLNRWITFAQSIISTLTAAA[about 600 residues skipped]
# notes: also called IL-2gm1-HSA
# B6: IL-2gm1d (T3A, M39A), HSA tag (ligand)
# chain: APASSSTKKTQLQLEHLLLDLQMILNGINNYKNPKLTRALTFKFYMPKKATELKHLQCLEEELKPLEEVLNLAQSKNFHLRPRDLISNINVIVLELKGSETTFMCEYADETATIVEFLNRWITFAQSIISTLTAAA[about 600 residues skipped]
# notes: HSA fusion; also called IL-2gm1d-HSA
# B7: IL-2gm6 (T3A, M39N, K49N, A73T, D109N), HSA tag (ligand)
# chain: APASSSTKKTQLQLEHLLLDLQMILNGINNYKNPKLTRNLTFKFYMPKNATELKHLQCLEEELKPLEEVLNLTQSKNFHLRPRDLISNINVIVLELKGSETTFMCEYANETATIVEFLNRWITFAQSIISTLTAAA[about 600 residues skipped]
# notes: also called IL-2gm6-HSA
# B8: IL-2gm1c (T3A, M39Q), HSA tag (ligand)
# chain: APASSSTKKTQLQLEHLLLDLQMILNGINNYKNPKLTRQLTFKFYMPKKATELKHLQCLEEELKPLEEVLNLAQSKNFHLRPRDLISNINVIVLELKGSETTFMCEYADETATIVEFLNRWITFAQSIISTLTAAA[about 600 residues skipped]
# notes: HSA fusion; also called IL-2gm1c-HSA
# Target: T1, human IL-2Rα receptor, extracellular …
# Assay: SPR, Biacore 8K, IL-2Rα immobilised on the chip, dynamic state (1:1 fit)
row,Kd,Binder
1,106 nM,B1
2,35.4 nM,B2

# Target: T3, human IL-2Rβγ heterodimerization receptor (IL-2Rβ ECD-Knobs Fc / IL-2Rγ ECD-Holes Fc) (human)
# T3 construct: they are read as the whole fusion chains, not the Fc fragments alone. hIgG1 Fc, knobs into holes; also called human recombinant IL-2Rβγ heterodimer; human hIL-2Rβ, γ ECD-N-hIgG1Fc
# Assay: SPR, Biacore 8K, IL-2Rβγ-Fc heterodimer captured on Protein A chip, dynamic state (1:1 fit)
row,Kd,Binder
1,15.3 nM,B1
2,36.5 nM,B3
3,28.3 nM,B4
4,13.8 nM,B5
5,33 nM,B2
6,23 nM,B6
7,28.9 nM,B7
8,38.4 nM,B8

# Target: T1, human IL-2Rα receptor, extracellular …
# Assay: SPR, Biacore 8K, IL-2Rα immobilised on the chip, steady state
row,Kd,Binder
1,55.6 nM,B1
2,72.6 nM,B2
3,66.2 nM,B6

# Target: T2, CD25 on the surface of NK92 cells …
# Assay: cell-based or functional assay
row,"specific activity to stimulate the proliferation of NK92 cells, compared with IL-2-HSA",Binder
1,1.07%,B5
2,1.78%,B2
3,0.087%,B7

# Target: T1, human IL-2Rα receptor, extracellular …
# Assay: Biacore 8K, IL-2Rα immobilised on the chip; steady state and dynamic state (c2 and c3)
row,binding result,Binder
1,no binding (tested: 200 nM),B3
2,no binding (tested: 200 nM),B4
3,no binding (tested: 200 nM),B5
4,no binding (tested: 200 nM),B7
5,no binding (tested: 200 nM),B8
